Experimental data published in the supplement of paper PMC7125110.
± gives the standard error. This sample is rich in variants without activity.

B1: glmS ribozyme (parent)
chain: AUAAAAGCGCCAGAACUACAGAAAUGUAGUUGACGAGGAGGAGGUUUAUCGAAUUUUCGGCGGAUGCCUCCAAA

Experiments:
Conditions in all cases: with glucosamine-6-phosphate
[1] = variants of: B1; assay: self-cleavage kobs at 40 uM GlcN6P; higher = faster cleavage; RNA array
How it was run: (§1)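 In situ transcription by E. coli RNA polymerase produced barcoded ribozyme variants on sequenced MiSeq chips, and a hybridised Cy3 probe tracked them at 37 °C. Glucosamine-6-phosphate was flowed in at 40 μM to 10 mM in HEPES/KCl/Mg(OAc)2 buffer. kcat and KM were taken from weighted Michaelis–Menten fits of kobs values from exponential decay fits.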

[2] = variants of: B1; assay: self-cleavage kobs at 640 uM GlcN6P; higher = faster cleavage; RNA array
How it was run: as §1

[3] = variants of: B1; assay: self-cleavage kobs at 160 uM GlcN6P; higher = faster cleavage; RNA array
How it was run: as §1

[4] = variants of: B1; assay: self-cleavage kobs at 2500 uM GlcN6P; higher = faster cleavage; RNA array
How it was run: as §1

[5] = variants of: B1; assay: self-cleavage kobs at 10000 uM GlcN6P; higher = faster cleavage; RNA array
How it was run: as §1

Variant	self-cleavage kobs at 40 uM GlcN6P [1]	self-cleavage kobs at 640 uM GlcN6P [2]	self-cleavage kobs at 160 uM GlcN6P [3]	self-cleavage kobs at 2500 uM GlcN6P [4]	self-cleavage kobs at 10000 uM GlcN6P [5]
A15G G51U	< 1e-05 s⁻¹	< 1e-05 s⁻¹	< 1e-05 s⁻¹	< 1e-05 s⁻¹	–
A15G G60A	< 1e-05 s⁻¹	–	< 1e-05 s⁻¹	–	–
A15G U30G	0.000265 ± 4.2e-05 s⁻¹	–	–	–	–
A15U A36U G60A	< 1e-05 s⁻¹	–	–	–	–
A15U A39C G41C	< 1e-05 s⁻¹	< 1e-05 s⁻¹	–	< 1e-05 s⁻¹	–
A15U A48C	< 1e-05 s⁻¹	–	–	–	–
A15U A48G	< 1e-05 s⁻¹	–	< 1e-05 s⁻¹	–	–
A15U A52C G59A C70A	< 1e-05 s⁻¹	–	–	–	–
A15U G35A C58A	< 1e-05 s⁻¹	–	–	–	< 1e-05 s⁻¹
A15U G37C C71G	< 1e-05 s⁻¹	–	–	–	< 1e-05 s⁻¹
A15U G38U U45G A52U C61U	< 1e-05 s⁻¹	–	< 1e-05 s⁻¹	–	< 1e-05 s⁻¹
A15U G43A G44U G62A	< 1e-05 s⁻¹	–	–	–	< 1e-05 s⁻¹
A15U G43U U65A	< 1e-05 s⁻¹	–	–	–	–
A15U U31A G32A A36U U57A C58G C71U	5.17e-05 ± 2.1e-05 s⁻¹	–	–	–	0.000109 ± 2.6e-05 s⁻¹
A15U U31G C71U	6.97e-05 ± 3.1e-05 s⁻¹	0.000238 ± 3.6e-05 s⁻¹	6.51e-05 ± 1.8e-05 s⁻¹	0.000267 ± 6.8e-05 s⁻¹	–
A15U U49G A52C	< 1e-05 s⁻¹	–	–	–	–
A15U U55G C61U	< 1e-05 s⁻¹	–	–	–	< 1e-05 s⁻¹
C16A A33G U45G	< 1e-05 s⁻¹	–	–	–	< 1e-05 s⁻¹
C16A A42C A52G	< 1e-05 s⁻¹	–	–	–	< 1e-05 s⁻¹
C16A A48U A52C C61U U65A	< 1e-05 s⁻¹	–	–	–	< 1e-05 s⁻¹
C16A C58U	< 1e-05 s⁻¹	–	< 1e-05 s⁻¹	–	3.14e-05 ± 1.3e-05 s⁻¹
C16A G35U G43C C68U	< 1e-05 s⁻¹	< 1e-05 s⁻¹	< 1e-05 s⁻¹	–	–
C16A G37U G43U C50G	< 1e-05 s⁻¹	–	–	–	< 1e-05 s⁻¹
C16A G41A	< 1e-05 s⁻¹	–	–	–	–
C16A G66U	< 1e-05 s⁻¹	–	–	–	–
C16A U65C	< 1e-05 s⁻¹	< 1e-05 s⁻¹	< 1e-05 s⁻¹	–	–
C16G A42C	< 1e-05 s⁻¹	< 1e-05 s⁻¹	< 1e-05 s⁻¹	< 1e-05 s⁻¹	< 1e-05 s⁻¹
C16G A42G	0.000233 ± 5.6e-05 s⁻¹	0.000804 ± 0.0003 s⁻¹	0.000208 ± 9.6e-05 s⁻¹	–	–

Variant	self-cleavage kobs at 40 uM GlcN6P [1]	self-cleavage kobs at 640 uM GlcN6P [2]	self-cleavage kobs at 160 uM GlcN6P [3]	self-cleavage kobs at 2500 uM GlcN6P [4]	self-cleavage kobs at 10000 uM GlcN6P [5]
C16G C34G G66C C70U	< 1e-05 s⁻¹	–	–	–	–
C16G G43U C71U	< 1e-05 s⁻¹	< 1e-05 s⁻¹	–	–	< 1e-05 s⁻¹
C16G G44A	< 1e-05 s⁻¹	–	< 1e-05 s⁻¹	–	–
C16G G59C	< 1e-05 s⁻¹	< 1e-05 s⁻¹	< 1e-05 s⁻¹	< 1e-05 s⁻¹	< 1e-05 s⁻¹
C16G U31C U45C	< 1e-05 s⁻¹	–	–	–	–
C16U	0.000969 ± 1.7e-05 s⁻¹	0.0121 ± 0.00055 s⁻¹	0.00308 ± 0.0002 s⁻¹	0.0272 ± 0.0015 s⁻¹	0.0458 ± 0.0022 s⁻¹
C16U A52C	< 1e-05 s⁻¹	–	< 1e-05 s⁻¹	–	–
C16U C34U G37A U46C	< 1e-05 s⁻¹	–	–	–	–
C16U C34U G43A U45A G51A	< 1e-05 s⁻¹	–	–	–	–
C16U G37A G41A U46C C71U	< 1e-05 s⁻¹	–	< 1e-05 s⁻¹	–	–
C16U G38U G41A G62U	< 1e-05 s⁻¹	–	–	–	–
C16U G41A U56C	< 1e-05 s⁻¹	–	–	–	–
C16U G41U G51A	< 1e-05 s⁻¹	–	–	–	–
C16U G63U C67U	< 1e-05 s⁻¹	–	–	–	–
C16U U30A G40A	< 1e-05 s⁻¹	–	–	–	–
C16U U30A U31G A53U G59U	< 1e-05 s⁻¹	–	–	< 1e-05 s⁻¹	–
C16U U30G	4.04e-05 ± 1.4e-05 s⁻¹	0.000244 ± 6.5e-05 s⁻¹	6.14e-05 ± 1.5e-05 s⁻¹	0.000944 ± 0.00032 s⁻¹	0.00235 ± 0.00062 s⁻¹
C16U U31A G41A U69A	< 1e-05 s⁻¹	–	–	–	< 1e-05 s⁻¹
C16U U45G A52U C67A C68G C71A	< 1e-05 s⁻¹	< 1e-05 s⁻¹	< 1e-05 s⁻¹	< 1e-05 s⁻¹	–
C16U U49G G62U	< 1e-05 s⁻¹	–	–	–	< 1e-05 s⁻¹
C16U U56G	0.000579 ± 9.9e-05 s⁻¹	0.00302 ± 0.00067 s⁻¹	0.000979 ± 0.0002 s⁻¹	0.00709 ± 0.0016 s⁻¹	0.0241 ± 0.0047 s⁻¹
G26U C50G	4.71e-05 ± 1.9e-05 s⁻¹	–	–	–	3.96e-05 ± 1.3e-05 s⁻¹
A28C C34A G62C	< 1e-05 s⁻¹	–	–	–	< 1e-05 s⁻¹
A28C G63U	< 1e-05 s⁻¹	–	–	< 1e-05 s⁻¹	< 1e-05 s⁻¹
G29A C34A G38C G41A	< 1e-05 s⁻¹	< 1e-05 s⁻¹	–	–	–
G29A C34A U46C	< 1e-05 s⁻¹	–	–	–	< 1e-05 s⁻¹
G29A C61G	< 1e-05 s⁻¹	–	–	–	< 1e-05 s⁻¹
